Data: PubChem BioAssay AID504706 (National Center for Advancing Translational Sciences (NCATS), 2011)
Among all 320,000 compounds or so, about 200 (0.062%) were called active. The inconclusive results got no clear call from the source; some entries with a clear call stand among them for comparison. Calls follow the shape of the dose curve; as a rule, active = well fitted activation curve with a large enough effect; inconclusive = small, poorly fitted or top-dose-only effect; inactive = no such curve, though single readings can be large or run the other way. Potencies of inconclusive entries are left out as doubtful fits.

assay: qHTS assay for re-activators of p53 using a Luc reporter; details: H1299 p53-A138V BP100-luciferase reporter, luminescence, 24 h; series mostly up to 92.2 µM; activity change, positive = activation: at the top concentration; also: nearly all actives have a fitted effect of over 45% in size; as to activity change, positive = activation: % of control where 0% means no effect
Method in brief: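 p53-null H1299 cells stably carrying temperature-sensitive p53-A138V and a BP100-luciferase reporter were pinned with compounds (4-point, 1:5 series) and held 24 hrs at 37 deg C. Luminescence was read 10 min after detection reagent.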
Potency is read from the fitted curve at half-maximal effect; tags tell the direction and shape of the fitted curve.

| SMILES | Potency | activity change, positive = activation |
| --- | --- | --- |
| Cc1ccc([C@@H]2CC=C(C(=O)O)[C@H](c3ccccc3F)N2S(=O)(=O)c2ccccc2C)cc1 | inconclusive [activator, single point] | – |
| COc1ccc(Cl)cc1NC(=O)CN(C)C(=O)CN1C(=O)NC(C)(C)C1=O | inconclusive [activator, single point] | – |
| COc1cccc(OCc2cc(C(=O)NC3CCOCC3)no2)c1 | inconclusive [activator, partial curve, poor fit] | – |
| COc1ccc(NC(=O)c2ccc(CN3CCN(c4ccccc4)CC3)cc2)cc1OC | inconclusive [activator, single point] | – |
| Cc1ccc(OCC(=O)Nc2ccc(F)cc2)cc1C | inconclusive [activator, partial curve, poor fit] | – |
| COc1ccc2nc(SCc3ccccc3C)nc(C)c2c1 | inconclusive [activator, partial curve] | – |
| O=Cc1ccccc1OCCOc1ccccc1C=O | inconclusive [activator, full curve, poor fit] | – |
| S=C(NCc1ccccc1)NCC1COc2ccccc2O1 (stereo unspecified) | inconclusive [activator, single point] | – |
| Oc1ccc(/C=C/c2cc(O)cc(O)c2)cc1 | inconclusive [activator, partial curve, poor fit] | – |
| CCOC(=O)N1CCN(C(c2cccnc2)c2ccc3cccnc3c2O)CC1 (stereo unspecified) | inconclusive [activator, single point] | – |
| COc1ccc(-n2c(N)c(C#N)c3ccc([N+](=O)[O-])cc3c2=O)cc1 | inconclusive [activator, full curve] | – |
| O=C(Nc1ccc2c(c1)oc1ccccc12)C1CC1 | inconclusive [activator, full curve, poor fit] | – |
| Brc1ccc(-c2ccc(/C=N/Nc3nc4ccccc4[nH]3)o2)cc1 | inconclusive [activator, full curve, poor fit] | – |
| Cc1ccc(-c2nnc(CN3CCCCC3C)o2)cc1 (stereo unspecified) | inconclusive [activator, single point] | – |
| COC(=O)c1ccc(/C=N/NC(=O)C(=O)NCC2CCCO2)cc1 (stereo unspecified) | – | inactive: 1.27% |
| C/C(=N\NC(=O)c1cccc(O)c1)c1cccc(NC(=O)c2ccc(F)cc2)c1 | – | inactive: 9.57% |
| O=c1sc(N2CCN(c3ccc(F)cc3)CC2)nc2ccsc12 | inconclusive [activator, full curve, poor fit] | – |
| CN(C)CCO[C@@H](c1ccc(Cl)cc1)c1ccccn1 | inconclusive [activator, single point] | – |
| O=C(NC(=S)Nc1ccc(Cl)cn1)c1cc([N+](=O)[O-])ccc1N1CCOCC1 | inconclusive [activator, single point] | – |
| COc1ccc(/C=N/Nc2nc3ccccc3[nH]2)cc1OC | inconclusive [activator, partial curve, poor fit] | – |
| CC(=O)Nc1ccc(S(=O)(=O)Oc2cccc(/C=C3\SC(N)=NC3=O)c2)cc1 | – | inactive: 11.7% |

| SMILES | Potency | activity change, positive = activation |
| --- | --- | --- |
| COc1ccc(-c2nnc(NC(=O)c3ccco3)s2)cc1 | inconclusive [activator, partial curve, poor fit] | – |
| CCCOC(=O)c1ccc(NC(=O)/C=C/c2cccs2)cc1 | inconclusive [activator, partial curve, poor fit] | – |
| O=C(N=C1SC2CS(=O)(=O)CC2N1CCc1ccccc1)C1CCCCC1 (stereo unspecified) | inconclusive [activator, single point] | – |
| Fc1ccc(/C=N/NC2=Nc3cccc4cccc2c34)cc1 | – | inactive: 45.9% |
| O=C(CCSc1ccccc1Cl)Nc1cccc([N+](=O)[O-])c1 | inconclusive [activator, single point] | – |
| Cc1ccc(C(=O)/C=C/c2cn(CC(O)CN3CCOCC3)c3ccccc23)cc1 (stereo unspecified) | inconclusive [activator, full curve, poor fit] | – |
| Cc1cccc(C)c1N1CCN(S(=O)(=O)c2ccccc2)CC1 | – | inactive: -3.05% |
| COc1cc(OC)c2cc(C(=O)N/N=C/c3cccc(OC)c3O)[nH]c2c1 | inconclusive [activator, partial curve, poor fit] | – |
| CC(=O)c1ccc(S(=O)(=O)Nc2cccc(-c3cn4c(n3)SCC4)c2)cc1 | – | inactive: -1.15% |
| O=C(N[C@H]1CC1c1ccccc1)c1ccc([N+](=O)[O-])cc1 (stereo partly specified) | inconclusive [activator, full curve, poor fit] | – |
| CC(C)(C)C(=O)Nc1ccc(C(=O)Nc2cccnc2)cc1 | inconclusive [activator, full curve, poor fit] | – |
| CCN(CC)S(=O)(=O)N1CCN(S(=O)(=O)N2CCOCC2)CC1 | – | inactive: 11.2% |
| COc1ccc(Nc2nc(N3CCN(S(C)(=O)=O)CC3)nc3ccccc23)c(OC)c1 | – | inactive: 7.34% |
| O=C(NCc1ccccc1)Nc1cccn(Cc2ccccc2)c1=O | inconclusive [activator, single point] | – |
| CCN(CC)c1ccc(C(=O)NNC(=O)c2cccn2C)cc1 | inconclusive [activator, partial curve, poor fit] | – |
| Cc1ccc(NC(=O)c2cccc3cccnc23)cc1 | inconclusive [activator, full curve, poor fit] | – |
| N#C/C(=C\c1ccc2c(c1)OCCO2)C(=O)NC1CCCCC1 | inconclusive [activator, partial curve, poor fit] | – |
| O=S(=O)(NC1CC2CCC1C2)c1ccc(Br)cc1 (stereo unspecified) | inconclusive [activator, single point] | – |
| Cc1ccc(-c2cc(=O)c3cc(F)ccc3[nH]2)cc1 | inconclusive [activator, partial curve, poor fit] | – |
| O=C(c1ccco1)N1CCCC(Nc2ccc3c(c2)OCCO3)C1 (stereo unspecified) | inconclusive [activator, partial curve, poor fit] | – |
